The text below walks through data of patent US9873709B2 (priority 2013, dated 2018).

Where a name gives a salt, the structure may show the parent alone.

The target in the first test is isolated recombinant JAK1 kinase domain (Homo sapiens (Human), UniProt P23458). As to conditions: read-out: JAK1 Ki.
Consider `CN1CCC(N(C)C(=O)c2ccc(Nc3nc4c(C5=CCC(CC#N)(c6ccc(Cl)cc6)CC5)cccn4n3)cc2)CC1` (stereo not drawn) [Example 1-294, 4-([8-[4-(4-chlorophenyl)-4-(cyanomethyl)cyclohex-1-en-1-yl]-[1,2,4]triazolo[1,5-a]pyridin-2-yl]amino)-N-methyl-N-(1-methylpiperidin-4-yl)benzamide], for which the Ki – broadly, the dissociation constant of the complex between target and ligand, obtained from inhibition or displacement – worked out at 0.68 nM.
Still for that read-out and setting: as for `CC(C)CN1CCC(N(C)C(=O)Cn2cc(Nc3nc4c(C5=CCN(C(=O)CCC(F)(F)F)CC5)cccn4n3)cn2)CC1` [Example 1-297, N-methyl-N-[1-(2-methylpropyl)piperidin-4-yl]-2-[4-([8-[1-(4,4,4-trifluorobutanoyl)-1,2,3,6-tetrahydropyridin-4-yl]-[1,2,4]triazolo[1,5-a]pyridin-2-yl]amino)-1H-pyrazol-1-yl]acetamide], the figure is 1.7 nM.

The test is the same for the next values; noted with them: read-out: JAK1 Ki; isolated recombinant JAK1 kinase domain, 25 μM ATP.
For `CN1CCC(N(C)C(=O)c2ccc(Nc3nc4c(N5CCC(C(=O)O)(c6ccc(Cl)cc6)CC5)cccn4n3)cc2)CC1` [Example 1-269, 4-(4-chlorophenyl)-1-[2-([4-[methyl(1-methylpiperidin-4-yl)carbamoyl]phenyl]amino)-[1,2,4]-triazolo[1,5-a]pyridin-8-yl]piperidine-4-carboxylic acid], the Ki stood at 28.5 nM.
Same read-out and setting: the result for `CN1CCCC12CN(C(=O)c1ccc(Nc3nc4c(N5CCC(CO)(c6ccc(Cl)cc6)CC5)cccn4n3)cc1)C2` [Example 1-274, [4-[[8-[4-(4-chlorophenyl)-4-(hydroxymethyl)-1-piperidyl]-[1,2,4]triazolo[1,5-a]pyridin-2-yl]amino]phenyl]-(5-methyl-2,5-diazaspiro[3.4]octan-2-yl)methanone] reads 0.2 nM.
On the same count and under the same terms, the result for `COC(=O)CCN1CCN(C(=O)Cn2cc(Nc3nc4c(N5CCC(CO)(c6ccc(Cl)cc6)CC5)cccn4n3)cn2)CC1` [Example 1-290, Methyl 3-(4-[2-[4-([8-[4-(4-chlorophenyl)-4-(hydroxymethyl)piperidin-1-yl]-[1,2,4]triazolo[1,5-a]pyridin-2-yl]amino)-1H-pyrazol-1-yl]acetyl]piperazin-1-yl)propanoate] reads 0.18 nM; that for `CN1CCC(N(C)C(=O)c2ccc(Nc3nc4c(N5CC6CC5CN6Cc5ccccc5)cccn4n3)cc2)CC1` (stereo not drawn) [Example 1-293, 4-[[8-(5-benzyl-2,5-diazabicyclo[2.2.1]heptan-2-yl)-[1,2,4]triazolo[1,5-a]pyridin-2-yl]amino]-N-methyl-N-(1-methyl-4-piperidyl)benzamide], 173 nM.
Same read-out and setting: the result for `O=C(NCCCN1CCOCC1)c1ccc(Nc2nc3c(C4C=CN(C(=O)CCC(F)(F)F)CC4)cccn3n2)cc1` (stereo not drawn) [Example 1-295, N-(3-morpholinopropyl)-4-[[8-[1-(4,4,4-trifluorobutanoyl)-3,4-dihydro-2H-pyridin-4-yl]-[1,2,4]triazolo[1,5-a]pyridin-2-yl]amino]benzamide] reads 7.38 nM.
With `CN1CCC(N(C)C(=O)c2ccc(Nc3nc4c(N5CCC(CC(N)=O)(c6ccc(Cl)cc6)CC5)cccn4n3)cc2)CC1` [Example 1-298], the Ki was found to be 0.63 nM.
On the same count and under the same terms, the result for `CN1CCC(N(C)C(=O)c2ccc(Nc3nc4c(N5CCC(CC(=O)N(C)C)(c6ccc(Cl)cc6)CC5)cccn4n3)cc2)CC1` [Example 1-300, 4-([8-[4-(4-chlorophenyl)-4-[(dimethylcarbamoyl)methyl]piperidin-1-yl]-[1,2,4]triazolo[1,5-a]pyridin-2-yl]amino)-N-methyl-N-(1-methylpiperidin-4-yl)benzamide] reads 1.23 nM; that for `CN1CCC(N(C)C(=O)c2ccc(Nc3nc4c(N5CCC(C)(NC(=O)c6ccccc6)CC5)cccn4n3)cc2)CC1` [Example 1-302, 4-[[8-(4-benzamido-4-methyl-1-piperidyl)-[1,2,4]triazolo[1,5-a]pyridin-2-yl]amino]-N-methyl-N-(1-methyl-4-piperidyl)benzamide], 22.2 nM.
Still for that read-out and setting: as for `CN1CCC(N(C)C(=O)c2ccc(Nc3nc4c(N5CCC(C)(NS(=O)(=O)c6ccccc6)CC5)cccn4n3)cc2)CC1` [Example 1-303, 4-[[8-[4-(benzenesulfonamido)-4-methyl-1-piperidyl]-[1,2,4]triazolo[1,5-a]pyridin-2-yl]amino]-N-methyl-N-(1-methyl-4-piperidyl)benzamide], the figure is 46 nM; as for `CN1CCC(N(C)C(=O)c2ccc(Nc3nc4c(C5=CCN(C(=O)OC6CC6)CC5)cccn4n3)cc2)CC1` [Example 2-2, cyclopropyl 4-[2-[4-[methyl-(1-methyl-4-piperidyl)carbamoyl]anilino]-[1,2,4]triazolo[1,5-a]pyridin-8-yl]-3,6-dihydro-2H-pyridine-1-carboxylate], 4.99 nM; as for `CN1CCC(N(C)C(=O)c2ccc(Nc3nc4c(C5=CCN(C(=O)CC(C)(C)O)CC5)cccn4n3)cc2)CC1` [Example 2-3, 4-[[8-[1-(3-hydroxy-3-methyl-butanoyl)-3,6-dihydro-2H-pyridin-4-yl]-[1,2,4]triazolo[1,5-a]pyridin-2-yl]amino]-N-methyl-N-(1-methyl-4-piperidyl)benzamide], 2.26 nM.
The same measure, in the same setting: as for `CN1CCC(N(C)C(=O)c2ccc(Nc3nc4c(C5=CCN(C(=O)N6CC(C#N)C6)CC5)cccn4n3)cc2)CC1` [Example 2-5, 4-[[8-[1-(3-cyanoazetidine-1-carbonyl)-3,6-dihydro-2H-pyridin-4-yl]-[1,2,4]triazolo[1,5-a]pyridin-2-yl]amino]-N-methyl-N-(1-methyl-4-piperidyl)benzamide], the figure is 2.23 nM; as for `CN1CCC(N(C)C(=O)c2ccc(Nc3nc4c(C5=CCN(C(=O)OCC#N)CC5)cccn4n3)cc2)CC1` [Example 2-7, cyanomethyl 4-[2-[4-[methyl-(1-methyl-4-piperidyl)carbamoyl]anilino]-[1,2,4]triazolo[1,5-a]pyridin-8-yl]-3,6-dihydro-2H-pyridine-1-carboxylate], 1.14 nM.
For the molecule `CN1CCC(N(C)C(=O)c2ccc(Nc3nc4c(C5=CCN(Cc6ccccc6)CC5)cccn4n3)cc2)CC1` [Example 2-8, 4-[[8-(1-benzyl-3,6-dihydro-2H-pyridin-4-yl)-[1,2,4]triazolo[1,5-a]pyridin-2-yl]amino]-N-methyl-N-(1-methyl-4-piperidyl)benzamide; hydrochloride], the Ki stood at 42.1 nM.
Still for that read-out and setting: as for `CN1CCC(N(C)C(=O)c2ccc(Nc3nc4c(C5=CCN(C(=O)CCO)CC5)cccn4n3)cc2)CC1` [Example 2-9, 4-[[8-[1-(3-hydroxypropanoyl)-3,6-dihydro-2H-pyridin-4-yl]-[1,2,4]triazolo[1,5-a]pyridin-2-yl]amino]-N-methyl-N-(1-methyl-4-piperidyl)benzamide], the figure is 8.76 nM; as for `CN(C)CCC(=O)N1CC=C(c2cccn3nc(Nc4ccc(C(=O)N(C)C5CCN(C)CC5)cc4)nc23)CC1` [Example 2-10, 4-[[8-[1-[3-(dimethylamino)propanoyl]-3,6-dihydro-2H-pyridin-4-yl]-[1,2,4]triazolo[1,5-a]pyridin-2-yl]amino]-N-methyl-N-(1-methyl-4-piperidyl)benzamide; dihydrochloride], 53.1 nM; as for `CCOC(=O)N1CC=C(c2cccn3nc(Nc4ccc(C(=O)NCC(C)(C)N5CCOCC5)cc4)nc23)CC1` [Example 2-11, ethyl 4-[2-[4-[(2-methyl-2-morpholino-propyl)carbamoyl]anilino]-[1,2,4]triazolo[1,5-a]pyridin-8-yl]-3,6-dihydro-2H-pyridine-1-carboxylate], 1.94 nM.
For `CCOC(=O)N1CC=C(c2cccn3nc(Nc4ccc(C(=O)N5CCC(N(C)C)CC5)cc4)nc23)CC1` [Example 2-12, ethyl 4-[2-[4-[4-(dimethylamino)piperidine-1-carbonyl]anilino]-[1,2,4]triazolo[1,5-a]pyridin-8-yl]-3,6-dihydro-2H-pyridine-1-carboxylate], the Ki was found to be 2.71 nM.
On the same count and under the same terms, as for `CCOC(=O)N1CC=C(c2cccn3nc(Nc4ccc(C(=O)NCCC5CCNCC5)cc4)nc23)CC1` [Example 2-13, ethyl 4-[2-[4-[2-(4-piperidyl)ethylcarbamoyl]anilino]-[1,2,4]triazolo[1,5-a]pyridin-8-yl]-3,6-dihydro-2H-pyridine-1-carboxylate], the figure is 1.54 nM; as for `CCOC(=O)N1CC=C(c2cccn3nc(Nc4ccc(C(=O)N(C)Cc5cccnc5)cc4)nc23)CC1` [Example 2-14, ethyl 4-[2-[4-[methyl(3-pyridylmethyl)carbamoyl]anilino]-[1,2,4]triazolo[1,5-a]pyridin-8-yl]-3,6-dihydro-2H-pyridine-1-carboxylate], 2.51 nM; as for `CCOC(=O)N1CC=C(c2cccn3nc(Nc4ccc(C(=O)N5CCCC5c5ccncc5)cc4)nc23)CC1` (stereo not drawn) [Example 2-15, ethyl 4-[2-[4-[2-(4-pyridyl)pyrrolidine-1-carbonyl]anilino]-[1,2,4]triazolo[1,5-a]pyridin-8-yl]-3,6-dihydro-2H-pyridine-1-carboxylate], 1.28 nM.
Turning to `CCOC(=O)N1CC=C(c2cccn3nc(Nc4ccc(C(=O)N5CCC(Cc6ccccn6)CC5)cc4)nc23)CC1` [Example 2-16, ethyl 4-[2-[4-[4-(2-pyridylmethyl)piperidine-1-carbonyl]anilino]-[1,2,4]triazolo[1,5-a]pyridin-8-yl]-3,6-dihydro-2H-pyridine-1-carboxylate], the Ki was 2.67 nM.
With `CCOC(=O)N1CC=C(c2cccn3nc(Nc4ccc(C(=O)N5CCN(Cc6ccccn6)CC5)cc4)nc23)CC1` [Example 2-17, ethyl 4-[2-[4-[4-(2-pyridylmethyl)piperazine-1-carbonyl]anilino]-[1,2,4]triazolo[1,5-a]pyridin-8-yl]-3,6-dihydro-2H-pyridine-1-carboxylate], the Ki was determined as 2.67 nM.
As to `CCOC(=O)N1CC=C(c2cccn3nc(Nc4ccc(C(=O)N5CCC(N6CCOCC6)CC5)cc4)nc23)CC1` [Example 2-18, ethyl 4-[2-[4-(4-morpholinopiperidine-1-carbonyl)anilino]-[1,2,4]triazolo[1,5-a]pyridin-8-yl]-3,6-dihydro-2H-pyridine-1-carboxylate], the Ki turned out to be 2.19 nM.
As for `CCOC(=O)N1CC=C(c2cccn3nc(Nc4ccc(C(=O)N5CCN(c6cccnc6)CC5)cc4)nc23)CC1` [Example 2-19, ethyl 4-[2-[4-[4-(3-pyridyl)piperazine-1-carbonyl]anilino]-[1,2,4]triazolo[1,5-a]pyridin-8-yl]-3,6-dihydro-2H-pyridine-1-carboxylate], the Ki was 1.9 nM.
